Values joined by “and” are separate entries in the source; they are usually repeats but may differ in a detail not shown here. Identical values can stand only once. The whole screen tested about 48,000 compounds, of which about 1,200 (2.5%) were called active. Not shown: some 2% with an inconclusive outcome.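 Rule for the calls: active = activation of at least 60% and not above a set upper limit (about 1 call in 100 departs from these limits); inconclusive = activation of 40% to 60%, or above that upper limit; inactive = activation under 40%.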 The list shows a part of the results.

UniProt O75388, sequence (O75388 whole entry, looked up): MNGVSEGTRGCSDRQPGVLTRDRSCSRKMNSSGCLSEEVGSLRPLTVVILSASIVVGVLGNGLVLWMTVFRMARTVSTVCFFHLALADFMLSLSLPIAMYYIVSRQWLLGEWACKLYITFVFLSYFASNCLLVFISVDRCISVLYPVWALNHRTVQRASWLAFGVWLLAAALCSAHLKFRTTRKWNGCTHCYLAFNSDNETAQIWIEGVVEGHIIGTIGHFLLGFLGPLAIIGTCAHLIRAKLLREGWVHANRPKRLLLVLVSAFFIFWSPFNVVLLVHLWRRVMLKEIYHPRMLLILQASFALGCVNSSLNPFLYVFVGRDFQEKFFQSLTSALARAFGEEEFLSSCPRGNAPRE

The target of this assay is Probable G-protein coupled receptor 32 (Homo sapiens) (UniProt O75388). Description: qHTS for Agonists of Human Resolvin D1 Receptor DRV1. Note: 0% is about no effect. The note with it: CHO-K1 GPR32 beta-arrestin PathHunter luminescence, 90 min; at 76.9 µM; hits give high values; zero percent set by DMSO-only wells. In outline:
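PathHunter beta-arrestin recruitment in CHO-K1 cells stably expressing ProLink-tagged GPR32. Cells were exposed to compound for 90 min at 37 C, then chemiluminescence was read after 1 h detection at ambient temperature; DMSO served as basal control.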
Consider `COc1ccc(OC)c(CCNC(=O)c2csc3c2CCCCC3)c1`, for which the activation was inactive: 5.49%. Take `CCOc1cccc(C2c3c(-c4cc(C)ccc4O)n[nH]c3C(=O)N2Cc2ccco2)c1` (configuration not stated): the activation was inactive: 28.1%. In the case of `Cc1ccc(CNC(=O)c2cc3c(=O)n(Cc4cccnc4)ccc3nc2C)cc1`, the activation is inactive: -7.97%. With `CCOC(=O)C(C)NC(=O)c1c(C)oc2ncn(CC(C)C)c(=O)c12` (configuration not stated) the figure was inactive: -4.51%; with `CCOC(=O)C1CCN(C(=O)c2ccc3c(=O)n4nc(Nc5cc(C)ccc5C)sc4nc3c2)CC1`, inactive: -3.53%; with `CCC(=O)C1=C(c2cccc(OC)c2)N(C(=O)CC)n2c(nnc2C2CCCCC2)S1`, inactive: -44.8%. In the case of `CCn1cc(C(=O)N2CCN(c3ccc(C(C)=O)cc3)CC2)c2cc(OC)c(OC)cc2c1=O`, the activation was inactive: -0.639%.

Take `COc1cccc(NC(=O)C2CCN(c3nn4cc(-c5ccc(F)cc5)nc4s3)CC2)c1`: the activation is inactive: -1.49%. With `Cc1cccc(C)c1OCc1nc2c3c(-c4ccccc4)c(-c4ccccc4)oc3ncn2n1` the figure was inactive: 6.69%; with `Cc1cc2c(cc1S(=O)(=O)NCc1ccccc1Cl)OCCN2C`, inactive: -35.5%; with `Cc1ccc(C)c(NC(=O)c2ccc3c(O)c(S(=O)(=O)c4ccc(Cl)cc4)c(=O)[nH]c3c2)c1`, inactive: -19.3%. In the case of `CCN(CC)c1nn2c(=O)c(C(=O)NCCc3ccccc3)cnc2s1`, the activation was inactive: 2.58%. `COc1ccc(OC)c(NC(=O)c2cc3c(=O)oc4ccccc4c3s2)c1`: the activation is inactive: -1.81%.

As for `CCCCSCCCNC(=O)CN1C(=O)c2cccnc2Oc2ccc(Cl)cc21`, the activation is inactive: -9.25%.

`CCOc1ccc(-c2nonc2NC(=O)c2oc3cc(C)ccc3c2C)cc1`: the activation was inactive: -14.5%. The same measure for `O=C(NCc1ccc(F)cc1)c1ccc2c(Cl)c3c(nc2c1)CCCC3`: inactive: -26.3%; for `Fc1ccc(-c2noc3ncnc(N4CCN(c5ccccc5)CC4)c23)cc1`: inactive: -7.88%.

On to `COc1ccc(S(=O)(=O)N2CCN(c3ccccc3F)CC2)cc1-c1noc(C)n1`, for which the activation is inactive: -14.8%. Regarding `Cc1cn2c(=O)cc(COc3cccc(NC(=O)c4ccccc4C)c3)nc2s1`, the activation is inactive: -2.55%. With `COc1ccc(NC(=O)C2CCN(S(=O)(=O)c3ccc4[nH]c(=O)ccc4c3)CC2)c(OC)c1`, the activation is inactive: 42.1%.

Turning to `CCOC(=O)c1ccccc1NC(=O)C(=O)Nc1ccc2nc3n(c(=O)c2c1)CCCCC3`, the activation was inactive: 0.292%. With `CCc1cccc(-n2c(C)nc3c(cnn3-c3ccc(Cl)cc3)c2=O)c1` the figure was inactive: 16.8%; with `CC(=O)N1CCOc2cc(S(=O)(=O)Nc3cccc(C(F)(F)F)c3)c(Cl)cc21`, inactive: -25.9%. As for `Cc1cc(C)cc(NC(=O)N2CCC(N3CCCCC3)CC2)c1`, the activation was inactive: 6.02%. With `CCOC(=O)c1c(-c2ccccc2)oc2ccc(N(C(C)=O)S(=O)(=O)c3cc(C)ccc3C)cc12` the figure was inactive: -9.29%; with `CCOC(=O)c1[nH]c(C)c(CCC(=O)NCc2ccccc2)c1C`, inactive: -14.5%. Consider `COc1ccc(OC)c(NC(=O)Cc2coc3ccc(C(C)C)cc23)c1`, for which the activation was inactive: -7.54%. With `CCc1c(C)nc(SCC(=O)N2CCN(c3ccccc3OC)CC2)[nH]c1=O` the figure was inactive: -21.5%. With `Cc1ccc(O)c(C(CC(=O)NCC2(c3ccccc3)CCCC2)c2ccccc2)c1` (configuration not stated), the activation was inactive: 23.6%. As to `O=C(O)[C@@H]1C[C@@H](C(=O)O)N1`, the activation was inactive: -1.78%. In the case of `CCOc1ccc(CNC(=O)C2CCN(c3nnc(-n4cccc4CNc4ccc(C)cc4)s3)CC2)cc1OC`, the activation was inactive: -8.4%. For the compound `Cc1ccc(-n2ncc(C(=O)N3CCN(c4cccc(C)c4)C(C)C3)c2C2CCN(C(=O)OC(C)(C)C)CC2)cc1` (configuration not stated), the activation is inactive: -21.3%.

For the compound `Cc1ccc(CNC(=O)Cn2nc(C)n3cccc3c2=O)cc1`, the activation is inactive: -9.11%. The same measure for `Cc1c2cnn(CC(=O)N3CCN(c4ccc(F)cc4)CC3)c(=O)c2c(C)n1Cc1ccc(F)cc1`: inactive: -8.86%; for `O=C(NCc1ccc(Cl)cc1)c1cc(S(=O)(=O)N2CCCCC2)c[nH]1`: inactive: 1.85%; for `CCN1CCSc2ccc(C(=O)NC(C)c3ccccc3)cc21` (configuration not stated): inactive: -28.3%. Take `CCOc1ccc2nc(NC(=O)c3cc(=O)c4ccc(C)cc4o3)sc2c1`: the activation was inactive: -11%. `Cc1cc(C)cc(C(=O)Nc2ccc(-c3nc4ncccc4o3)cc2)c1`: the activation was inactive: 17.3%.

For `CCOc1ccc(N2CC(c3nc4ccccc4n3Cc3cccc(Cl)c3)CC2=O)cc1` (configuration not stated), the activation is inactive: -20.2%. On to `Cc1nn(CCCC(=O)NCc2ccc(F)cc2)c(=O)c2c1sc1ccccc12`, for which the activation was inactive: -12.9%. For `COc1c(C)cc(S(=O)(=O)NCCc2c(C)[nH]c3ccccc23)c(C)c1C`, the activation is inactive: 21.8%.

As for `CCOC(=O)c1cc(-c2ccccc2)n(-c2cccc(C(=O)Nc3ccc(F)c(F)c3)c2)c1C`, the activation was inactive: -12.4%. With `COc1ccccc1CNC(=O)CCn1c(=O)c2ccccc2n(CC(=O)Nc2cccc(Cl)c2)c1=O`, the activation was inactive: 9.35%. The same measure for `Cc1c(NC(=O)c2cc(-c3ccc(Cl)c(Cl)c3)on2)c(=O)n(-c2ccccc2)n1C`: inactive: 10.9%. With `CCOc1ccc(S(=O)(=O)NCC(c2ccco2)S(=O)(=O)c2cccs2)cc1` (configuration not stated) the figure was inactive: -19.1%; with `CCOc1ccc(-c2cc(NC(=O)Nc3cccc(C(C)=O)c3)c(C(=O)OC)s2)cc1`, inactive: -2.86%. Turning to `CCOC(=O)c1ccc(NC(=O)CCCc2nc(-c3ccccc3Cl)no2)cc1`, the activation is inactive: -0.772%.

As for `CCN(CC)CCCC(C)Nc1c2ccc(Cl)cc2nc2ccc(OC)cc12` (configuration not stated), the activation was inactive: 44.6% and inactive: 11.3%. `COc1ccc(N2CCN(C(=O)CCc3c(C)nn(-c4ccc(N5CCCC5)nn4)c3C)CC2)cc1`: the activation was inactive: -21.7%. Take `Cc1ccc(NC(=O)Nc2nnc(N(CC(C)C)CC(C)C)s2)cc1Cl`: the activation was inactive: -21.1%. In the case of `COc1ccc(OC)c(NC(=O)C2CCCN(S(=O)(=O)c3c(C)nn(C)c3C)C2)c1` (configuration not stated), the activation is inactive: -20.5%. As to `Cc1ccc(NC(=O)c2cnn3c(C(F)F)cc(-c4ccccc4)nc23)c(C)c1`, the activation is inactive: -3.02%. Take `O=C(O)c1ccc2c(c1)ncn2-c1ccc(F)c(F)c1`: the activation was inactive: -1.33%. On to `COc1cccc(N2CCN(C(=O)C(CCSC)NS(=O)(=O)c3ccc4c(c3)oc(=O)n4C)CC2)c1` (configuration not stated), for which the activation was inactive: -14.5%.

For the compound `CCc1ccc(CNC(=O)Cc2ccc(NC(=O)N3CCSc4ncccc43)cc2)cc1`, the activation was inactive: 32.3%. For the compound `COc1ccc(NC(=O)C2=C(C)Nc3ncnn3C2c2ccc(O)cc2)cc1` (configuration not stated), the activation was inactive: -2.46%. As for `O=C(Nc1ccc(Cl)cc1)C1CCN(c2nc3ccccc3nc2C(F)(F)F)CC1`, the activation is inactive: 9.21%. For `O=C(NCC(c1cccnc1)N1CCc2ccccc2C1)c1ccc(F)c(F)c1` (configuration not stated), the activation is inactive: -13.5%.

Turning to `O=C(NC1CC1)c1ccc(Cn2c(SCc3cccc(F)c3)nc3cccnc32)cc1`, the activation was inactive: -11.3%.

As to `COc1ccccc1N1CCN(C(=O)c2ccc(CS(=O)c3ccccc3C)o2)CC1` (configuration not stated), the activation was inactive: 3.19%. As to `COc1ccc(CCN2C(=O)c3oc4cc(C)cc(C)c4c(=O)c3C2c2ccc(F)cc2)cc1OC` (configuration not stated), the activation is inactive: -4.27%. The same measure for `Cn1cc(S(=O)(=O)c2cccc(Cl)c2)c(=O)c2cc(F)c(N3CCCCCC3)cc21`: inactive: -10.5%. For `CCS(=O)(=O)N1CCc2cc(C(=O)NCc3ccc(OC)cc3)ccc21`, the activation was inactive: 6.1%. Turning to `O=C(O)P(=O)(O)O`, the activation is inactive: -0.518%.

For the compound `CCC(CC)C(=O)Nc1ccc(OCc2cc(=O)n3c4c(sc3n2)CCCC4)cc1`, the activation was inactive: 18.3%. With `Cc1ccc(C(=O)N2CCc3cc(CNS(=O)(=O)c4ccc(Cl)s4)ccc32)cc1`, the activation was inactive: 9.77%.

Regarding `Cc1ccc(C)c(N2CCN(C(=O)C3CCN(c4nc(-c5ccc(C(C)C)cc5)no4)CC3)CC2)c1`, the activation is inactive: -17.7%. For the compound `CCOc1ccc(NC(=O)c2ccc3c(SCC(=O)O)c4c(nc3c2)CCCC4)cc1`, the activation was inactive: 4.18%.

In the case of `O=C(CN1CCN(S(=O)(=O)c2cc(Cl)ccc2Cl)CC1)Nc1cccc(F)c1`, the activation is inactive: 2.4%. With `Cn1cc(S(=O)(=O)c2ccc(Cl)cc2)c(=O)c2cc(F)c(N3CCCCCC3)cc21` the figure was inactive: -10.9%; with `O=C(Nc1ccc(NC(=O)c2cc3ccccc3o2)cc1)c1ccccc1`, inactive: 1.89%. The same measure for `CCOC(=O)C1CCCN(C(=O)c2ccc3c(c2)N(Cc2ccccc2)C(=O)c2ccccc2S3(=O)=O)C1` (configuration not stated): inactive: -27.8%; for `CC1=C(C(=O)Nc2ccc(C)cc2C)C(c2ccccc2[N+](=O)[O-])n2ncc(C(=O)Nc3ccccc3)c2N1` (configuration not stated): inactive: -33.2%; for `Fc1ccc(-c2nc(Nc3ccc(F)c(Cl)c3)nc3c2COc2ccccc2-3)cc1`: inactive: -2.12%.

For `CC(C(=O)Nc1cccc(C#N)c1)n1nc(-c2ccccc2)c2c(c1=O)CCCC2` (configuration not stated), the activation was inactive: 31.6%. Regarding `CCOC(=O)c1ccccc1NC(=O)Cn1cc(C(=O)c2cccc(OC)c2)c(=O)c2ccc(C)nc21`, the activation is inactive: -16.2%.

Turning to `CCCCCCCCCCCCCCCC[N+](C)(C)CCN(Cc1ccc(OC)cc1)c1ncccn1`, the activation is inactive: -47.5%. In the case of `CCOC(=O)c1c(C)[nH]c(CCC(=O)NCCCN2CCN(c3ccc(F)cc3)CC2)c1C`, the activation was inactive: -13.1%. On to `CC(C)c1ccc(NC(=O)c2cc3c(s2)-c2ccccc2SC3)cc1`, for which the activation was inactive: -18.2%. The same measure for `Cc1ccc(CCNC(=O)c2ccc3c(c2)N(Cc2cccc(C)c2)C(=O)c2ccccc2S3(=O)=O)cc1`: inactive: -4.83%; for `Cc1cccc(-c2nc(S(=O)(=O)c3ccc(F)cc3)c(N3CCN(c4ccccc4)CC3)o2)c1`: inactive: 3.36%. In the case of `O=C(CN1C(=O)COc2ccc(S(=O)(=O)N3CCCCCC3)cc21)NCc1ccc(Cl)cc1`, the activation was inactive: -15%.

For the origin of these results see PubChem BioAssay AID1346428 (National Center for Advancing Translational Sciences (NCATS), 2018).
